According to the supplement of paper PMC4466236:
The full ranking holds about 33,000 sequences; the median of “E-score (dimensionless, -0.5 to 0.5)” is about -0.058, and the highest 2% start at about 0.35. This is one part of the list.

test system: MvaT; assay: PBM 8-mer E-score (mean of HK and ME arrays) (E-score (dimensionless, -0.5 to 0.5)); higher = stronger relative binding preference; most listed sequences are background and not binding sites
Method in brief: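 Full-length P. aeruginosa MvaT carrying an N-terminal glutathione S-transferase tag was tested by protein binding microarray following a previously described protocol. Two universal double-stranded 60-mer arrays, ME and HK, were used, each with a constant 25-mer primer region and a variable 35-mer region covering all 8-mers. The rank-based E-score is the mean of the two arrays, parsed with a custom script. Its range runs from -0.5 to 0.5 for each 8-mer.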

Sequence	PBM 8-mer E-score
ATGATGGG	-0.0211
AGTGCCGG	-0.0286
AACCGTGT	-0.135
ACGAGACG	-0.22
GTTTGCCA	-0.124
AAACCCAT	-0.0863
CGGGGACA	-0.172
GTTAGTCA	0.19
CACGCAAG	-0.204
ACTGCACC	0.0311
ATACTATA	0.377
AAAATCCG	-0.0637
GCGTCTGA	-0.16
AAAATCGA	0.17
CTGAGGCA	-0.221
AACGATAT	0.168
CGTAAAAG	0.179
CGATGCGC	-0.161
CAACTCAA	-0.00711
GACCGTAA	0.0868
AGACGGAC	-0.174
AAGACGGG	0.0468
TAGGACTA	-0.0422
AAATCTTG	0.0145
CAGCTCTC	-0.243

Sequence	PBM 8-mer E-score
CAGCAGTA	0.0787
GCATTACC	-0.0713
ATCCCCCA	-0.166
ACGAGCGC	-0.16
AATTTGGC	0.161
AATTACGT	0.263
ATGTGATA	0.196
GCCTAAGC	-0.261
ACTGGAAG	-0.0943
GAACGCCC	-0.222
ACGGTAGC	-0.186
CTCGCTTC	-0.129
GGCGCAGA	-0.173
CTACAACC	0.099
ACATATGG	0.145
CAAACGTG	-0.038
AACGTCGA	-0.066
GGCCGGAA	-0.135
CACAATAG	0.176
TAGCATAA	0.137
CCTATCGA	-0.0881
CGGCCGCC	-0.254
AATTGTGC	0.2
GCGTACGA	-0.0931
TAATAGGA	0.222

Sequence	PBM 8-mer E-score
ACTTTATG	0.194
CGTCTAGA	-0.153
GATGCCAA	-0.105
CGTGCTCA	-0.162
CCACGACG	-0.122
CTCCCACC	-0.143
CGTCAGGC	-0.177
GAGGCCGA	-0.158
AAACATAG	0.216
ACTTCTAG	0.122
CGCACTCA	-0.118
CGATAGAG	-0.13
ATTCCAAA	0.197
TGACCACA	-0.0974
GGCCGGCA	-0.0768
ATTGGGGG	-0.233
AGCCGTAG	-0.193
GCCAGTAA	-0.0282
ACATGTTC	0.121
ACAATAGA	0.232
CCATTGTC	0.0472
AAGTGCGG	-0.0343
CGCGTAAG	-0.0607
CGACACCA	-0.0804
ATTCGCCG	-0.073

Sequence	PBM 8-mer E-score
CAGCGCCA	-0.301
CAATTATC	0.264
GTAGCGAA	-0.139
ATTGAGGG	-0.00549
AGGGTTTA	0.0535
TCTTTAAA	0.227
CTTCGTTA	0.0633
CAGGTTAG	-0.252
ATATCTAG	0.252
CCGCTCCC	-0.366
AGACTCAC	-0.088
ATAAGTAT	0.356
GCGCGTCC	-0.245
AGCCCAGA	-0.208
CCTAGCCG	-0.224
CTAAAAAC	0.131
ATCACCCC	-0.315
AACTTATC	0.351
CGTTAAAG	0.186
CGTGCTTC	-0.0848
CCACGTAG	-0.1
AAACTATG	0.21
ACGTTAAA	0.256
CCCTGCGC	-0.267
TCGTGTCA	-0.0596

Sequence	PBM 8-mer E-score
ACTGATTA	0.24
GAGACTGC	-0.111
AAGGGGCG	-0.336
AAGACCAA	0.0721
GCGCTTCA	-0.11
AACCCCCA	-0.248
CATTTCTC	0.154
TGAGAAAA	0.166
GCACTGCC	-0.189
ATGTGGTG	0.122
CGTTATAG	0.2
GCGGCTCA	-0.298
AAACCGAT	0.0459
CAGCGGCC	-0.16
CGTACTTC	0.0831
ATAGGCAG	0.0245
ACATATCG	0.243
TACCCGAA	-0.0783
CGCACCTA	0.0274
ACAACAGA	0.0232
GAGGTTCA	-0.251
GAGCTCAA	-0.146
ATCGGGGA	-0.213
AGCGGATA	0.113
CGGCTCTC	-0.244

Sequence	PBM 8-mer E-score
CGGCGCCC	-0.28
GGAATACA	0.138
ACCAAGAG	-0.187
CTAACAAG	-0.0335
ACGTTCCT	-0.057
GGCTAGAA	-0.0418
ACGCCCCT	-0.292
ACGACCAC	-0.0476
AGAGGCGC	-0.328
AGAGTGAA	-0.0581
CCGACAGA	-0.143
CGCCTCTA	-0.259
CGAAGCTA	-0.123
GCAACAAA	0.249
ACATTACG	0.137
ATGCTTGC	-0.109
CCCCACAA	-0.318
CTGTACAG	-0.186
AGGATCCT	-0.282
CTTTGGGA	0.000804
ATCTGCTG	0.015
ATATGCGA	0.244
GCGAACAC	-0.0851
TAACTCAA	0.225
CCTTGCAG	-0.228

Sequence	PBM 8-mer E-score
GATGACAA	0.11
AGGCGCTC	-0.23
GGCCTCAC	-0.339
AAACTGTG	-0.0285
CTCACCTC	-0.183
CTCCCCCA	-0.302
CCAGGGGC	-0.357
CATTGTGA	0.0307
ACGGAGGA	-0.349
CCACATTA	0.156
CGCGAGTA	0.0694
AACGACGG	0.0335
CCTCGGGC	-0.184
ACTGACTC	-0.135
GATCCATA	-0.0716
GAGGTTCC	-0.286
CCTCTTGC	-0.0881
CTGAGGTC	-0.412
CAAGTGAC	-0.0568
CTGGGTTA	0.155
ACCCGGTA	0.0126
TGCTTGAA	-0.175
GAACGCCA	-0.171
AATTAACC	0.262
CATAGAGC	-0.176

Sequence	PBM 8-mer E-score
AATGCACC	-0.137
CTGGAAGC	-0.204
AAAGCTAT	0.0863
ACATTACA	0.253
ACCAGTAA	0.14
AAAGGCCA	-0.0662
AGCAACGC	-0.265
ATAAGAAT	0.292
ATACGACA	0.1
AATGCCTA	0.0154
CGCCAATA	0.0436
ACTTACCT	0.112
CGACGGCG	-0.209
CTAGGCGC	-0.17
AGTGAGAC	0.0215
TCATGGGA	-0.0976
GAAGTAAA	0.155
AGTAGTAT	0.249
GGACGTAC	-0.138
AACTTGAT	0.242
CTATACCA	0.0687
CGAGTCAG	-0.278
CAGCTGAG	-0.163
CACTCCAG	-0.196
ACAGCAGC	-0.0972

Sequence	PBM 8-mer E-score
GACCATGA	-0.214
CTAGTCGA	-0.122
ACCAGACA	-0.0988
TGAATCCA	0.084
CTGAACCA	-0.178
CTTTCAGA	-0.0594
AAGGCTGC	-0.172
TGCAGACA	0.0205
AAAAAGTC	0.17
AACGACAT	-0.0137
CAACGAGC	-0.147
GTCCAAAA	0.0635
AATCGTGC	-0.0828
GAGGAGCA	-0.388
CGGTCTAA	0.0875
CGGGCGTA	-0.101
TCTTGACA	0.0114
ACTAAGTG	0.0826
GCAAAGCC	-0.238
AAAACTAG	0.184
CCAGAACA	0.0165
ATCGTTTC	0.0328
GCGTTCTA	-0.0806
AAAGATGG	0.12
CATTATCC	0.235

Sequence	PBM 8-mer E-score
CACGGTAC	0.0167
CCTGCACC	-0.285
GAAGTATA	0.263
GAGCATGA	-0.169
AAATAGCC	0.14
CAGATCCG	-0.177
GGCAGCAC	-0.232
CTTGGAAC	-0.0173
CACAACTG	-0.0536
CTATACAA	0.202
TAATAATA	0.477
ATTGGTGC	0.00889
GCGGCGCA	-0.101
GAACAAGA	-0.0658
GGTCCGGA	-0.142
CGATGTTC	-0.024
TAGGCTCA	-0.042
CAGCACCA	-0.159
GTTCTGAA	0.0546
CGGAGCGC	-0.207
GGCAGACC	-0.218
AGTGGCGC	-0.268
GCGTACCA	-0.241
CGTCAGAA	-0.00609
CTCTTTCA	0.00719

Sequence	PBM 8-mer E-score
ACCTTCGT	-0.257
AGGGTGTG	-0.0556
GAGTCGGC	-0.191
AATCCGCC	-0.0734
AAATGCTT	0.194
CCGATCGG	-0.199
CTCCATGC	-0.162
GTTCGGAA	-0.00248
GGCTAGGA	-0.228
ACGTTAGT	0.121
CCCCTTCA	-0.324
TCAGCACA	-0.0457
ACGGATGA	-0.215
ATCCAGAT	0.0948
CAGCTCAC	-0.326
CTTTGTCC	-0.0737
CAATCTGA	-0.0113
CCCGCCCA	-0.00644
ACCAACAG	0.0163
ACCCCGCC	-0.218
AACCTGGT	-0.0172
ACCAGGAA	-0.0655
ACACCCCT	-0.285
ACTAGCCT	-0.076
CCAGTTTA	-0.0385

Sequence	PBM 8-mer E-score
AACTTCTA	0.292
TAATACCA	0.336
AGCGTCGG	-0.209
ACAGAGAG	-0.175
AGCGATAG	-0.182
CCATGTTA	0.135
CCTCGTAA	-0.0103
CGCAGGCG	-0.305
ACGAGACC	-0.0801
AGGACCTA	-0.129
TAGGCGAA	0.0896
GCGGTCAC	-0.249
AGGTCACA	-0.21
AATGACAA	0.184
CAGGGCGG	-0.209
AACAACGA	0.144
ACTAGTGG	-0.0174
AGTCTGTC	-0.0632
AGAGACGG	-0.306
AGGTGTGA	-0.0136
CGACGCAA	-0.00367
TCGCCGCA	-0.141
ATAGCAAC	0.0976
AAGAGGGA	-0.199
CCAGTTCC	-0.215

Sequence	PBM 8-mer E-score
CGGCGGCA	-0.201
CGGCAGTC	-0.252
TATAGCCA	0.0726
ATACGTTG	0.0544
CGCATCAC	-0.2
ATCTCGCC	-0.148
TCCGGCCA	-0.199
AAACCTTT	0.203
AAAGATCT	-0.0217
TACTTATA	0.389
CATGTCGA	-0.0621
TAATTTGA	0.201
CGTCAAAC	-0.0617
AACCGCTA	-0.0482
CGCTGCGC	-0.177
AAGTCGAA	0.0176
ATCAATAA	0.308
GCTGTCCA	-0.136
CTTTGAAA	0.141
TCAGTCCA	-0.282
AACCAATT	0.239
AAGCTAGT	0.0286
TCTATGCA	0.0844
ACACTAAG	0.0998
CACGCGTA	-0.094

Sequence	PBM 8-mer E-score
CTGTACCA	-0.181
AATGCTGC	0.0834
ATGACGTG	0.0296
ACGAAGCC	-0.177
GACCACGA	-0.184
GGCATTCA	0.0708
GCAGTGAC	-0.231
GTGCTAGA	0.0104
GGAAAAAC	0.00643
AGCGCAAA	0.162
AACTAGAT	0.147
GACGGCGC	-0.269
CCCATACC	-0.191
GAACATCC	-0.0729
TCCTTACA	0.119
CGTCCTAC	-0.053
ATAGTAAT	0.353
AGACCAGG	-0.185
AGTTACAA	0.277
